Among the data in the supplement of paper PMC10928670 are MIC values, retold here.

Common to all, as to assay: Agar dilution by CLSI M07.
For orientation: Agar dilution tests growth on a series of plates holding different concentrations.

Compound in one assay: C=CC1=C(C(=O)O)N2C(=O)[C@@H](NC(=O)/C(=N\OCC(=O)O)c3csc(N)n3)[C@H]2SC1 [cefixime]
Compound in another assay: CC[C@H]1OC(=O)[C@H](C)[C@@H](O[C@H]2C[C@@](C)(OC)[C@@H](O)[C@H](C)O2)[C@H](C)[C@@H](O[C@@H]2O[C@H](C)C[C@H](N(C)C)[C@H]2O)[C@](C)(O)C[C@@H](C)CN(C)[C@H](C)[C@@H](O)[C@]1(C)O [azithromycin]
Compound in another assay: CO/N=C(\C(=O)N[C@@H]1C(=O)N2C(C(=O)O)=C(CSc3nc(=O)c(O)nn3C)CS[C@H]12)c1csc(N)n1 [ceftriaxone]
Compound in the next assay: CN[C@@H]1[C@H](O)[C@H](NC)[C@H]2O[C@@]3(O)C(=O)C[C@@H](C)O[C@H]3O[C@@H]2[C@H]1O [spectinomycin]
Compound in the next assay: CC1(C)S[C@@H]2[C@H](NC(=O)Cc3ccccc3)C(=O)N2[C@H]1C(=O)O [penicillin G]

MIC of N. gonorrhoeae strains collected 1971-2005, agar dilution (CLSI M07); ranges 0.03-64 mg/L (penicillin, azithromycin), 0.015-1 (cefixime, ceftriaxone), 0.5-256 (spectinomycin); higher = less susceptible. No active / inactive call per row; the paper counts cefixime and ceftriaxone above 0.25 and azithromycin above 1 mg/L as non-susceptible. The source says 'penicillin'; penicillin G is assumed. Isolates are numbered anew. Bounds are passed on as bounds.

Broadly, the MIC is the lowest concentration found to suppress growth. Take “Neisseria gonorrhoeae isolate 149 (GyrA: S91F, D95G, ParC: Wild type, mtrR: -35A Del, penA: Type V Nonmosaic, A517G, G543S, ponA: L421P, porB: G120K, A121D)”: the MIC with cefixime came out at 0.25 µg/mL; with azithromycin, 0.25 µg/mL; in the assay with ceftriaxone it was 0.125 µg/mL; with spectinomycin it was 16 µg/mL; with penicillin G it was 4 µg/mL.
With “Neisseria gonorrhoeae isolate 21 (GyrA: Wild type, ParC: Wild type, mtrR: Wild type, penA: Type I NonMosaic, ponA: Wild type, porB: Wild type)”, the MIC with cefixime is no more than 0.015 µg/mL; in the assay with azithromycin, 0.06 µg/mL; in the assay with ceftriaxone, no more than 0.015 µg/mL; with spectinomycin, 32 µg/mL; with penicillin G, 0.125 µg/mL.
Take “Neisseria gonorrhoeae isolate 144 (GyrA: Wild type, ParC: Wild type, mtrR: -35A Del, penA: Type XXII NonMosaic, A517G, ponA: Wild type, porB: G120D)”: the MIC with cefixime was no more than 0.015 µg/mL; in the assay with azithromycin it was 1 µg/mL; with ceftriaxone, no more than 0.015 µg/mL; with spectinomycin, 8 µg/mL; with penicillin G, 1 µg/mL.
In the case of “Neisseria gonorrhoeae isolate 164 (GyrA: S91F, ParC: Wild type, mtrR: G45D, penA: Type VII NonMosaic, A501V, A517G, G543S, ponA: L421P, porB: G120K, A121N)”, the MIC was determined as 0.125 µg/mL in the assay with cefixime; 0.06 µg/mL in the assay with azithromycin; 0.125 µg/mL with ceftriaxone; 32 µg/mL in the assay with spectinomycin; 2 µg/mL in the assay with penicillin G.
“Neisseria gonorrhoeae isolate 57 (GyrA: Wild type, ParC: Wild type, mtrR: -35A Del, G45D, penA: Type XXII NonMosaic, A517G, ponA: L421P, porB: G120D, A121D)”: the MIC is no more than 0.015 µg/mL with cefixime; 0.25 µg/mL in the assay with azithromycin; no more than 0.015 µg/mL in the assay with ceftriaxone; 16 µg/mL with spectinomycin; 4 µg/mL with penicillin G.
Turning to “Neisseria gonorrhoeae isolate 185 (GyrA: Wild type, ParC: Wild type, mtrR: G45D, penA: Type XXII NonMosaic, A517G, ponA: Wild type, porB: G120A)”, the MIC was no more than 0.015 µg/mL in the assay with cefixime; 0.25 µg/mL with azithromycin; no more than 0.015 µg/mL in the assay with ceftriaxone; 16 µg/mL in the assay with spectinomycin; 0.25 µg/mL in the assay with penicillin G.
As for “Neisseria gonorrhoeae isolate 201 (GyrA: Wild type, ParC: Wild type, mtrR: -35A Del, penA: Type IV NonMosaic, A517G, G543S, ponA: L421P, porB: G120D)”, the MIC worked out at 0.03 µg/mL in the assay with cefixime; 0.25 µg/mL in the assay with azithromycin; 0.03 µg/mL with ceftriaxone; 16 µg/mL with spectinomycin; 2 µg/mL in the assay with penicillin G.
On to “Neisseria gonorrhoeae isolate 114 (GyrA: S91F, D95G, ParC: Wild type, mtrR: -35A Del, penA: Type V Nonmosaic, A517G, G543S, ponA: L421P, porB: G120K, A121D)”, for which the MIC is 0.125 µg/mL with cefixime; 0.25 µg/mL in the assay with azithromycin; 0.06 µg/mL with ceftriaxone; 16 µg/mL with spectinomycin; 4 µg/mL in the assay with penicillin G.
Take “Neisseria gonorrhoeae isolate 214 (GyrA: Wild type, ParC: Wild type, mtrR: -35A Del, A39T, penA: Type V Nonmosaic, A517G, G543S, ponA: L421P, porB: A121D)”: the MIC with cefixime came to 0.03 µg/mL; in the assay with azithromycin, 0.25 µg/mL; with ceftriaxone, 0.03 µg/mL; with spectinomycin, 16 µg/mL; in the assay with penicillin G, 2 µg/mL.
For the test system “Neisseria gonorrhoeae isolate 108 (GyrA: Wild type, ParC: Wild type, mtrR: -35A Del, G45D, penA: Type XII NonMosaic, A517G, ponA: L421P, porB: G120K, A121D)”, the MIC with cefixime was no more than 0.015 µg/mL; with azithromycin it was 0.06 µg/mL; in the assay with ceftriaxone, no more than 0.015 µg/mL; in the assay with spectinomycin, 16 µg/mL; in the assay with penicillin G, 1 µg/mL.
On to “Neisseria gonorrhoeae isolate 111 (GyrA: Wild type, ParC: Wild type, mtrR: -35A Del, G45D, penA: Type II NonMosaic, A517G, ponA: L421P, porB: Wild type)”, for which the MIC in the assay with cefixime was no more than 0.015 µg/mL; with azithromycin it was 0.125 µg/mL; with ceftriaxone it was no more than 0.015 µg/mL; in the assay with spectinomycin, 8 µg/mL; with penicillin G it was 0.5 µg/mL.
Consider “Neisseria gonorrhoeae isolate 231 (GyrA: Wild type, ParC: Wild type, mtrR: G45D, penA: Type I NonMosaic, ponA: Wild type, porB: Wild type)”, for which the MIC in the assay with cefixime is no more than 0.015 µg/mL; in the assay with azithromycin it was 0.06 µg/mL; with ceftriaxone, no more than 0.015 µg/mL; in the assay with spectinomycin it was 16 µg/mL; in the assay with penicillin G it was 0.06 µg/mL.
On to “Neisseria gonorrhoeae isolate 166 (GyrA: D95N, ParC: Wild type, mtrR: Wild type, penA: Type I NonMosaic, ponA: Wild type, porB: Wild type)”, for which the MIC in the assay with cefixime is no more than 0.015 µg/mL; with azithromycin it was no more than 0.03 µg/mL; in the assay with ceftriaxone it was no more than 0.015 µg/mL; in the assay with spectinomycin, 16 µg/mL; in the assay with penicillin G it was 0.125 µg/mL.
Turning to “Neisseria gonorrhoeae isolate 97 (GyrA: Wild type, ParC: Wild type, mtrR: Wild type, penA: Type I NonMosaic, ponA: Wild type, porB: Wild type)”, the MIC in the assay with cefixime was no more than 0.015 µg/mL; with azithromycin, 0.25 µg/mL; with ceftriaxone, no more than 0.015 µg/mL; in the assay with spectinomycin it was 16 µg/mL; in the assay with penicillin G, 0.125 µg/mL.
